Experimental data: BigSolDB 2.1

O=C(c1ccccc1)c1ccccc1
solubility (mole fraction)
Conditions | 278.15 K | 283.15 K | 288.15 K | 293.15 K | 298.15 K | 303.15 K | 308.15 K | 313.15 K | 318.15 K
in acetone | 0.31 | 0.35 | 0.381 | 0.427 | 0.491 | 0.562 | 0.669 | 0.755 | 0.906
in acetonitrile | 0.301 | 0.33 | 0.368 | 0.419 | 0.475 | 0.543 | 0.633 | 0.722 | 0.848
in ethanol | 0.0316 | 0.0425 | 0.0615 | 0.0917 | 0.139 | 0.208 | 0.29 | 0.391 | 0.573
in ethyl acetate | 0.281 | 0.328 | 0.358 | 0.399 | 0.455 | 0.533 | 0.607 | 0.692 | 0.828
in isobutanol | 0.135 | 0.161 | 0.198 | 0.244 | 0.295 | 0.378 | 0.453 | 0.597 | 0.786
in isopropanol | 0.0614 | 0.0756 | 0.105 | 0.155 | 0.213 | 0.284 | 0.391 | 0.502 | 0.672
in methanol | 0.0208 | 0.0262 | 0.0392 | 0.0542 | 0.0867 | 0.13 | 0.208 | 0.302 | 0.455
in methyl acetate | 0.206 | 0.234 | 0.278 | 0.334 | 0.392 | 0.455 | 0.518 | 0.613 | 0.719
in n-butanol | 0.131 | 0.159 | 0.191 | 0.236 | 0.285 | 0.354 | 0.433 | 0.577 | 0.766
in n-octanol | 0.139 | 0.169 | 0.209 | 0.256 | 0.305 | 0.384 | 0.483 | 0.617 | 0.806
in n-propanol | 0.0775 | 0.0958 | 0.123 | 0.164 | 0.219 | 0.313 | 0.419 | 0.538 | 0.708
